# The list shows a part of the results. The list includes weakly bound sequences.
# Target: T1, MBP-FoxP3dN (UniProt Q99JB6)
# T1 sequence: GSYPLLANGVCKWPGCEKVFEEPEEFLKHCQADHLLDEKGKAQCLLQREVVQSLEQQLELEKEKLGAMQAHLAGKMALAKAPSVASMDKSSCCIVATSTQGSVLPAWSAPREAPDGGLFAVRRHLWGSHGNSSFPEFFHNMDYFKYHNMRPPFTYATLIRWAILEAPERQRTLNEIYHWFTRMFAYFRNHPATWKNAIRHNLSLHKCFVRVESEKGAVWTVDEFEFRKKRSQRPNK
# Assay: PD-seq (MBP pull-down with sequencing)
# Settings: 20 mM Tris-HCl pH 7.5, 100 mM NaCl, 1.5 mM MgCl2, 0.4 uM protein, 0.1 uM dsDNA library, 30 min, room temperature, amylose pull-down; high values mean tight binding; double strand, one strand shown
row,Sequence,binding signal (RPM ratio (pull-down/input))
1,GATGATTGTTCTCCCAGCTGATGAATTTTTCGGCTCGAGTAAACAAATTTTCCTAATCTTTCTGTTCAAGCGCCATCTAC,0.211
2,GATGATTGTTCTCCCAGCTGATGAATTCATCAGTTCGAGTAAACAAATTTTCCTAATCTTTCTGTTCAAGCGCCATCTAC,0.536
3,GATGATTGTTCTCCCAGCTGATGAATTGTTGATCTCGAGTAAACAAATTTTCCTAATCTTTCTGTTCAAGCGCCATCTAC,3.69
4,GATGATTGTTCTCCCAGCTGATGAATTGCCAACTTCGAGTAAACAAATTTTCCTAATCTTTCTGTTCAAGCGCCATCTAC,0.574
5,GATGATTGTTCTCCCAGCTGATGAATTTTGACTATCGAGTAAACAAATTTTCCTAATCTTTCTGTTCAAGCGCCATCTAC,0.775
6,GATGATTGTTCTCCCAGCTGATGAATTATCTGTCTCGAGTAAACAAATTTTCCTAATCTTTCTGTTCAAGCGCCATCTAC,0.303
7,GATGATTGTTCTCCCAGCTGATGAATTGGGGGCGTCGAGTAAACAAATTTTCCTAATCTTTCTGTTCAAGCGCCATCTAC,0.608
8,GATGATTGTTCTCCCAGCTGATGAATTTAATATCTCGAGTAAACAAATTTTCCTAATCTTTCTGTTCAAGCGCCATCTAC,2.23
9,GATGATTGTTCTCCCAGCTGATGAATTTGATGGATCGAGTAAACAAATTTTCCTAATCTTTCTGTTCAAGCGCCATCTAC,0.718
10,GATGATTGTTCTCCCAGCTGATGAATTTCGTTTCTCGAGTAAACAAATTTTCCTAATCTTTCTGTTCAAGCGCCATCTAC,1.21
11,GATGATTGTTCTCCCAGCTGATGAATTAGATGTATCGAGTAAACAAATTTTCCTAATCTTTCTGTTCAAGCGCCATCTAC,1.79
12,GATGATTGTTCTCCCAGCTGATGAATTTAGTAAGTCGAGTAAACAAATTTTCCTAATCTTTCTGTTCAAGCGCCATCTAC,0.519
13,GATGATTGTTCTCCCAGCTGATGAATTCGGCCTGTCGAGTAAACAAATTTTCCTAATCTTTCTGTTCAAGCGCCATCTAC,4.25
14,GATGATTGTTCTCCCAGCTGATGAATTGGGTCGTTCGAGTAAACAAATTTTCCTAATCTTTCTGTTCAAGCGCCATCTAC,0.461
15,GATGATTGTTCTCCCAGCTGATGAATTCATCGTCTCGAGTAAACAAATTTTCCTAATCTTTCTGTTCAAGCGCCATCTAC,0.859
16,GATGATTGTTCTCCCAGCTGATGAATTTGATGCATCGAGTAAACAAATTTTCCTAATCTTTCTGTTCAAGCGCCATCTAC,3.19

row,Sequence,binding signal (RPM ratio (pull-down/input))
1,GATGATTGTTCTCCCAGCTGATGAATTTGCCGTCTCGAGTAAACAAATTTTCCTAATCTTTCTGTTCAAGCGCCATCTAC,1.17
2,GATGATTGTTCTCCCAGCTGATGAATTATAACACTCGAGTAAACAAATTTTCCTAATCTTTCTGTTCAAGCGCCATCTAC,0.809
3,GATGATTGTTCTCCCAGCTGATGAATTGTACCGATCGAGTAAACAAATTTTCCTAATCTTTCTGTTCAAGCGCCATCTAC,0.409
4,GATGATTGTTCTCCCAGCTGATGAATTTTTAGAGTCGAGTAAACAAATTTTCCTAATCTTTCTGTTCAAGCGCCATCTAC,0.245
5,GATGATTGTTCTCCCAGCTGATGAATTACTAGTGTCGAGTAAACAAATTTTCCTAATCTTTCTGTTCAAGCGCCATCTAC,0.523
6,GATGATTGTTCTCCCAGCTGATGAATTCGAATTTTCGAGTAAACAAATTTTCCTAATCTTTCTGTTCAAGCGCCATCTAC,0.527
7,GATGATTGTTCTCCCAGCTGATGAATTAGCGTGGTCGAGTAAACAAATTTTCCTAATCTTTCTGTTCAAGCGCCATCTAC,1.31
8,GATGATTGTTCTCCCAGCTGATGAATTATCCGACTCGAGTAAACAAATTTTCCTAATCTTTCTGTTCAAGCGCCATCTAC,0.257
9,GATGATTGTTCTCCCAGCTGATGAATTAAGGTATTCGAGTAAACAAATTTTCCTAATCTTTCTGTTCAAGCGCCATCTAC,1.02
10,GATGATTGTTCTCCCAGCTGATGAATTCCCAATGTCGAGTAAACAAATTTTCCTAATCTTTCTGTTCAAGCGCCATCTAC,0.285
11,GATGATTGTTCTCCCAGCTGATGAATTACAACCCTCGAGTAAACAAATTTTCCTAATCTTTCTGTTCAAGCGCCATCTAC,0.475
12,GATGATTGTTCTCCCAGCTGATGAATTTCTACTGTCGAGTAAACAAATTTTCCTAATCTTTCTGTTCAAGCGCCATCTAC,0.236
13,GATGATTGTTCTCCCAGCTGATGAATTTTGCCACTCGAGTAAACAAATTTTCCTAATCTTTCTGTTCAAGCGCCATCTAC,5.96
14,GATGATTGTTCTCCCAGCTGATGAATTCCCTAGATCGAGTAAACAAATTTTCCTAATCTTTCTGTTCAAGCGCCATCTAC,0.184
15,GATGATTGTTCTCCCAGCTGATGAATTCCCCACGTCGAGTAAACAAATTTTCCTAATCTTTCTGTTCAAGCGCCATCTAC,0.249
